In the supplement of paper PMC4967469:

Assays:
Assay in all cases: Viability of human cancer cell lines after 72 h of drug (GDSC screen)
NVP-TAE684 = compound: COc1cc(N2CCC(N3CCN(C)CC3)CC2)ccc1Nc1ncc(Cl)c(Nc2ccccc2S(=O)(=O)C(C)C)n1 [NVP-TAE684]; settings: top dose 2 µM
Experimental: (§1)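 Human cancer cell lines in 384-well plates, medium with 10% serum, drug for 72 h over a 256-fold dose range (nine 2-fold or five 4-fold steps up to the top dose). Adherent lines were fixed and stained with the nucleic acid dye Syto60, suspension lines read with resazurin; signal relative to control wells, capped at 0 and 100%. One two-parameter sigmoid per drug and line, fitted in a mixed model over all curves with the slope shared within a line.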

AMG-706 = compound: CC1(C)CNc2cc(NC(=O)c3cccnc3NCc3ccncc3)ccc21 [AMG-706]; settings: top dose 2 µM; top dose inferred
Experimental: as §1

YM155 = compound: COCC[n+]1c2c(n(Cc3cnccn3)c1C)C(=O)c1ccccc1C2=O [YM155]; settings: top dose 5.12 µM
Experimental: as §1

OSI-906 = compound: C[C@]1(O)C[C@@H](c2nc(-c3ccc4ccc(-c5ccccc5)nc4c3)c3c(N)nccn32)C1 [OSI-906]; settings: top dose 2.56 µM; top dose inferred
Experimental: as §1

Belinostat = compound: O=C(/C=C/c1cccc(S(=O)(=O)Nc2ccccc2)c1)NO [Belinostat]; settings: top dose 20 µM; top dose inferred
Experimental: as §1

Docetaxel = compound: CC(=O)O[C@@]12CO[C@@H]1C[C@H](O)[C@@]1(C)C(=O)[C@H](O)C3=C(C)[C@@H](OC(=O)[C@H](O)[C@@H](NC(=O)OC(C)(C)C)c4ccccc4)C[C@@](O)([C@@H](OC(=O)c4ccccc4)[C@H]21)C3(C)C [Docetaxel]; settings: top dose 0.0125 µM
Experimental: as §1

JNK Inhibitor VIII = compound: CCOc1nc(NC(=O)Cc2cc(OC)ccc2OC)cc(N)c1C#N [JNK Inhibitor VIII]; settings: top dose 10 µM; top dose inferred
Experimental: as §1

NSC-207895 = compound: CN1CCN(c2ccc([N+](=O)[O-])c3no[n+]([O-])c23)CC1 [NSC-207895]; settings: top dose 20 µM; top dose inferred
Experimental: as §1

FTI-277 = compound: COC(=O)[C@H](CCSC)NC(=O)c1ccc(NC[C@@H](N)CS)cc1-c1ccccc1 [FTI-277]; settings: top dose 1.024 µM; top dose inferred
Experimental: as §1

JNJ-26854165 = compound: c1ccc2c(CCNc3ccc(Nc4ccncc4)cc3)c[nH]c2c1 [JNJ-26854165]; settings: top dose 10 µM
Experimental: as §1

Cyclopamine = compound: CC1=C2C[C@H]3[C@@H](CC=C4C[C@@H](O)CC[C@@]43C)[C@@H]2CC[C@]12O[C@@H]1C[C@H](C)CN[C@H]1[C@H]2C [Cyclopamine]; settings: top dose 16 µM; top dose inferred
Experimental: as §1

JQ1 = compound: Cc1sc2c(c1C)C(c1ccc(Cl)cc1)=N[C@@H](CC(=O)OC(C)(C)C)c1nnc(C)n1-2 [JQ1]
Experimental: as §1

CGP-60474 = compound: OCCCNc1cc(-c2ccnc(Nc3cccc(Cl)c3)n2)ccn1 [CGP-60474]; settings: top dose 0.256 µM; top dose inferred
Experimental: as §1

SB-715992 = compound: Cc1ccc(C(=O)N(CCCN)[C@@H](c2nc3cc(Cl)ccc3c(=O)n2Cc2ccccc2)C(C)C)cc1 [SB-715992]; settings: top dose 0.128 µM; top dose inferred
Experimental: as §1

[1] = top dose 1 µM, screen: GDSC drug entry 1218, top dose inferred
[2] = top dose 2.56 µM, screen: GDSC drug entry 163

Row | Cell Line | AUC (NVP-TAE684) | IC50 (NVP-TAE684) [nM] | AUC (AMG-706) | IC50 (AMG-706) [nM] | AUC (YM155) | IC50 (YM155) [nM] | AUC (OSI-906) | IC50 (OSI-906) [nM] | AUC (Belinostat) | IC50 (Belinostat) [nM] | AUC (Docetaxel) | IC50 (Docetaxel) [nM] | AUC (JNK Inhibitor VIII) | IC50 (JNK Inhibitor VIII) [nM] | AUC (NSC-207895) | IC50 (NSC-207895) [nM] | AUC (FTI-277) | IC50 (FTI-277) [nM] | AUC (JNJ-26854165) | IC50 (JNJ-26854165) [nM] | AUC (Cyclopamine) | IC50 (Cyclopamine) [nM] | AUC (JQ1; [1]) | IC50 (JQ1; [1]) [nM] | AUC (JQ1; [2]) | IC50 (JQ1; [2]) [nM] | AUC (CGP-60474) | IC50 (CGP-60474) [nM] | AUC (SB-715992) | IC50 (SB-715992) [nM]
1 | OCI-M1 (acute myeloid leukaemia, suspension) | 0.96 | > 2000 | 0.993 | > 2000 | 0.114 | 30.4 | 0.995 | > 2560 | 0.094 | 100 | 0.994 | > 12.5 | 0.991 | > 10000 | 0.792 | 6770 | 0.995 | > 1020 | 0.983 | > 10000 | 0.995 | > 16000 | 0.839 | 464 | 0.665 | 407 | 0.894 | 180 | 0.818 | 51.4
2 | P32-ISH (Burkitt lymphoma, suspension) | 0.812 | 760 | 0.995 | > 2000 | 0.01 | < 20 | 0.987 | > 2560 | 0.163 | 174 | 0.954 | > 12.5 | 0.995 | > 10000 | 0.596 | 2140 | 0.995 | > 1020 | 0.933 | 9770 | 0.887 | 10200 | 0.839 | 453 | 0.568 | 234 | 0.567 | 23.3 | 0.662 | 19.9
3 | REH (B-cell leukaemia, suspension) | 0.95 | > 2000 | 0.987 | > 2000 | 0.023 | < 20 | 0.89 | > 2560 | 0.239 | 228 | 0.869 | 10.8 | 0.987 | > 10000 | 0.853 | 14700 | 0.979 | > 1020 | 0.893 | > 10000 | 0.963 | > 16000 | 0.916 | > 1000 | 0.782 | 1030 | 0.96 | > 256 | 0.63 | 18
4 | RXF393 (kidney, adherent) | 0.708 | 614 | 0.952 | > 2000 | 0.052 | < 20 | 0.904 | > 2560 | 0.364 | 453 | 0.687 | 3.24 | 0.961 | > 10000 | 0.743 | 8320 | 0.961 | > 1020 | 0.782 | 6020 | 0.975 | > 16000 | 0.972 | > 1000 | 0.936 | > 2560 | 0.548 | 22.8 | 0.861 | > 128
5 | SBC-1 (small cell lung carcinoma, suspension) | 0.985 | > 2000 | 0.988 | > 2000 | 0.026 | < 20 | 0.973 | > 2560 | 0.262 | 270 | 0.951 | > 12.5 | 0.989 | > 10000 | 0.684 | 4000 | 0.97 | > 1020 | 0.83 | 5950 | 0.989 | > 16000 | 0.751 | 318 | 0.913 | > 2560 | 0.941 | > 256 | 0.988 | > 128
6 | SF126 (glioma, adherent) | 0.78 | 869 | 0.903 | > 2000 | 0.314 | 93.5 | 0.949 | > 2560 | 0.417 | 729 | 0.852 | 10.5 | 0.974 | > 10000 | 0.982 | > 20000 | 0.96 | > 1020 | 0.912 | > 10000 | 0.986 | > 16000 | 0.984 | > 1000 | 0.839 | 1880 | 0.744 | 83.5 | 0.895 | > 128
7 | SF268 (glioma, adherent) | 0.775 | 857 | 0.922 | > 2000 | 0.14 | 21.1 | 0.98 | > 2560 | 0.278 | 277 | 0.652 | 2.14 | 0.957 | > 10000 | 0.518 | 1410 | 0.955 | > 1020 | 0.908 | > 10000 | 0.956 | > 16000 | 0.982 | > 1000 | 0.887 | > 2560 | 0.628 | 37.1 | 0.775 | 54.5
8 | SF539 (glioma, adherent) | 0.067 | < 7.81 | 0.952 | > 2000 | 0.839 | 2990 | 0.987 | > 2560 | 0.699 | 4240 | 0.388 | 0.399 | 0.963 | > 10000 | 0.926 | > 20000 | 0.989 | > 1020 | 0.848 | 6310 | 0.945 | > 16000 | 0.985 | > 1000 | 0.948 | > 2560 | 0.747 | 74.8 | 0.84 | 75.5

IC50 is the fitted dose that halves viability relative to control wells, and lower means more sensitive; a limit (>, <) means that the fit lies beyond the doses tested. The AUC spans the tested range (256-fold, ending at the top dose) of the same fit; it is 1 without any effect and falls as sensitivity rises. For part of these data: The top dose, if marked as inferred, was derived from the fitted curves, not read from the paper. For part of these data: Drugs with an entry number were screened twice under separate entries, and the two screens often disagree.
